The text below walks through data of the RNAGym collection of RNA variant scans (doi:10.7554/elife.90254).

Sequences and labels used below:
B1: LINE1-full (parent)
chain: UACGUAGGUGGUUUUCCCCUGAUAGUGCUAAGGGGGCCUGGAAGUUUGGACUGGGCAGAGCUCAACACAGCGUGGCAAAGUGGCUGUGGCUAGACUGCCUCUCUGGAUUCCUCGUCACUCAGCAGGGCAUCUCUGAGAGAAAUGCC

Read counts are not given, so values of variants with three or more changes are uncertain.

The variants in the series derive from B1. Kind of series: self-cleavage, relative activity (ratio to wild type); higher = more cleavage; in vitro, sequencing; the parent is a self-cleaving ribozyme.
Regarding U85A A92G U112A, the self-cleavage amounted to 0.05.
The figure for A94U U108C A140G is 0.25.
In the case of U102C U134C A138C, the self-cleavage worked out at 1.53.
Regarding A92U A107G A121G, the self-cleavage worked out at 1.11.
Next, U91C A140G A142U: 0.59.
For G82A U100C A138U A142G, the self-cleavage was found to be 2.74.
U102C U115C U132A: the self-cleavage worked out at 2.3.
On to U96A A121U A124G, for which the self-cleavage came to 0.06.
As for A94U U115C C146U, the self-cleavage turned out to be 0.46.
The figure for A94G A117G A136G is 0.
With U81G U87A U100A, the self-cleavage stood at 0.43.
A94G U102A U104C: the self-cleavage was determined as 0.97.
Regarding U87C U96C U132C, the self-cleavage is 0.
Next, U85C A107G A141G: 0.16; U102A U112C U134C: 1.5.
As to U96C U130C U134A, the self-cleavage came to 0.
The figure for U81C U85C U119C A136U A142G is 0.77; for G80A U115C U119A it is 2.14.
The figure for G93C G114U U143C is 0.03; for U85A C90U A124U it is 0.1.
As to U91C A107G A140G, the self-cleavage turned out to be 0.28.
In the case of U96C A107G A141G, the self-cleavage is 0.
For G80U U104A A136U, the self-cleavage stood at 1.64.
With U87C U100C U119C A141G, the self-cleavage came out at 0.
As to U91C U112A A129U, the self-cleavage is 0.97.
Turning to U85A A136G A140U, the self-cleavage is 0.06.
The figure for U96A U102G G126A is 0.09; for U85A A94G U115A it is 0; for U85C U134A A140U it is 0.12.
For C84U U100C A121U G126A A140G, the self-cleavage was 0.21.
Consider A107G A136U U143G, for which the self-cleavage was determined as 1.29.
As to U81A U119C A138G, the self-cleavage came to 2.63.
Take G83A A129U A142G: the self-cleavage is 0.76.
For the variant A94U U100C A107G, the self-cleavage came out at 0.24.
Regarding U104C U112C A141G, the self-cleavage was determined as 1.15.
Next, U96C U100C U132C: 0.39; A92G U102C A129G A140G: 0; U85A C99A U119A: 0.07.
As to U96A U104A U112C, the self-cleavage is 0.12.
For the variant U87C U108A A138G, the self-cleavage is 0.11.
Consider A107G A124U U134C, for which the self-cleavage is 1.1.
On to U85C A117C A142G, for which the self-cleavage worked out at 0.14.
With U96C U104C C111A A121U, the self-cleavage came out at 0.12.
Turning to G88A U119A C145U, the self-cleavage was 0.06.
U85A A129U U130C: the self-cleavage turned out to be 0.16.
For G82A U109C U115C, the self-cleavage turned out to be 1.23.
As for A92U C120U G135A A140G, the self-cleavage worked out at 0.51.
Regarding U100C A129U G139A, the self-cleavage was 1.95.
Regarding A94G U102C U109A, the self-cleavage amounted to 0.46.
As for A92G C99U C128U, the self-cleavage stood at 0.08.
Consider U96C U109A G127C, for which the self-cleavage stood at 0.14.
Consider U104A A124G A138G, for which the self-cleavage worked out at 0.94.
Turning to U81A A138G A141G, the self-cleavage was found to be 1.04.
As to A94G U96C A136G, the self-cleavage is 0.
Take A79U U102C G122A: the self-cleavage stood at 1.49.
Turning to U85C U104C U109C, the self-cleavage was 0.
Turning to A92U A94G A117U U143C, the self-cleavage was 0.15.
The figure for U87C C113U U119A G126A is 0.15.
In the case of G97A A117U A129G, the self-cleavage was found to be 0.17.
Next, C84U C133A A142G: 0.07; C90U U96A A117G: 0.11.
In the case of A94G U96A A140G, the self-cleavage worked out at 0.07.
The figure for U91C U104C C113G is 1.78; for G82A U119C G125A A138G A142C it is 2.52.
On to G93U U104A U108C, for which the self-cleavage amounted to 0.03.
As for U81C A141G U143C, the self-cleavage was 0.92.
Regarding U96C U109A U115C, the self-cleavage amounted to 0.
For the variant U85A A107U A136G, the self-cleavage is 0.09.
Next, U100C A138G A141G: 2.18; U85C U115A G127A: 0.1; A79U U119G A142G: 2.06.
Next, U85G U87A U96C: 0; U87C C101A A124G A142G: 0.15.
Consider A94G U96A U104C U130C, for which the self-cleavage amounted to 0.42.
C101A A107U U119A: the self-cleavage was 1.22.
With C84U A92G A141G, the self-cleavage turned out to be 0.04.
For A94G U96A A136G U143A, the self-cleavage came to 0.08.
The figure for A94G C120U A124G is 0.17; for G88U G122A G125A A138G it is 0.03.
Turning to U96C C113A A129U, the self-cleavage worked out at 0.08.
As to A92G G97A U115C A140G, the self-cleavage stood at 0.03.
The figure for A92U A140G A142G is 1.08; for G80A U115C A124G it is 1.69; for A94G U115C A138G it is 0.
With U87A U102C U134C, the self-cleavage turned out to be 0.12.
In the case of U100C U104A A136U, the self-cleavage came out at 2.73.
Turning to U102A U112C A124G, the self-cleavage was 2.81.
Regarding U87G G89A U130C U132C, the self-cleavage came out at 0.09.
With U96C U108C U119A, the self-cleavage was 0.
Regarding U87A U119C U134A, the self-cleavage amounted to 0.01.
As to U96G U115C A142G, the self-cleavage was 0.
In the case of A94G U100A A121U, the self-cleavage stood at 0.18.
Regarding U85C U109A A142G, the self-cleavage stood at 0.09.
Take U102C C103A U143A: the self-cleavage stood at 1.89.
Next, U85C U100C A141G: 0.39; U85C U108C U134A A136G: 0.33; U104C U130C U134A: 0.43.
In the case of A94G U115A A138G, the self-cleavage was 0.31.
Next, U81A U96A A129U A140G: 0.06.
In the case of U96C U115C U130C, the self-cleavage stood at 0.
U96A A138G G144U: the self-cleavage turned out to be 0.13.
As to U85C U87C A142G, the self-cleavage came to 0.29.
Turning to U85G U115G U119C, the self-cleavage came out at 0.
Turning to U85A U109A A138G, the self-cleavage turned out to be 0.
Turning to U85C U102C A140U, the self-cleavage stood at 0.44.
On to U96A U102A U119C G127A, for which the self-cleavage amounted to 0.11.
Take G88A C120A U134A A138G: the self-cleavage stood at 0.06.
Turning to U87C A117G U132C A142G, the self-cleavage came to 0.35.
With A94G U104A A121G, the self-cleavage stood at 0.
As to C99U C113U A141G, the self-cleavage amounted to 0.5.
Next, C84A C113U U134C: 0.06; U87C A129G A142G U143A: 0.3; U81C U130C A136U: 0.63.
Next, U87C U115A U134A: 0.06; U87C A121U A138G: 0.35.
As to G86A U108A A142G, the self-cleavage was 0.04.
As for G80U U130C A140C, the self-cleavage amounted to 1.84.
As to U81C C128A A129G C146A, the self-cleavage was found to be 0.2.
Take U102C A124G A136U: the self-cleavage is 1.2.
For C84A A107G A117U, the self-cleavage is 0.14.
U85G U119C A129G C131A: the self-cleavage was 0.
As for U85A U108C U119C, the self-cleavage is 0.12.
Next, U100C G105A C111U A124G: 1.49; G80A U104C A136G: 2.88.
On to U104A A107G C113G, for which the self-cleavage came out at 1.15.
The figure for G88A U119C G127C U143C is 0.07.
With A94G C131U A136U, the self-cleavage came out at 0.32.
Regarding A94G U108C G125A, the self-cleavage was determined as 0.44.
Next, U87A G97A A117G: 0.08; A79U U115G A136U: 2.18; A94G C99U A107G U115C: 0.
For the variant U104A A136G A142U, the self-cleavage was determined as 2.02.
As for G80A U100C A140G, the self-cleavage worked out at 2.99.
Next, U100C G127A U130A A138G: 2.36; A94G C103U U134A: 0.15; U91C U119C U132C: 0.34.
As for C103U A121U A138U, the self-cleavage turned out to be 1.63.
Take U102C U132C A136G: the self-cleavage turned out to be 0.
In the case of U91C U102G C133U, the self-cleavage was found to be 0.
Turning to A92G U112A A140G, the self-cleavage worked out at 0.29.
With G83A U96C U104C A129G, the self-cleavage turned out to be 0.
Consider U85A U87G G114A U119C, for which the self-cleavage worked out at 0.
With U91C U102C U143A, the self-cleavage came out at 0.66.
Consider U81A U96A A117G, for which the self-cleavage came out at 0.04.
For U81A A124U A136G, the self-cleavage was 2.5.
As to U91C U112C G114U, the self-cleavage was 0.68.
U91C U100C A124U: the self-cleavage is 0.73.
G86A G106U A140G: the self-cleavage was found to be 0.1.
For the variant U85C U100C A129U U132A, the self-cleavage worked out at 0.21.
With A92U U100C A107G, the self-cleavage was 1.36.
On to U81A U96C C99A, for which the self-cleavage was 0.08.
Consider U102C U108A U115C, for which the self-cleavage amounted to 0.
With U96A U100C A117G, the self-cleavage is 0.27.
U85C U104C U143A: the self-cleavage was 0.28.
Take A94G A124U U130C: the self-cleavage turned out to be 0.48.
Turning to G80A U91C A142G, the self-cleavage is 0.62.
For G82A A94G C145U, the self-cleavage is 0.55.
Next, U87A A124G U134C: 0.
For the variant U87C U104C A124U, the self-cleavage was 1.97.
In the case of C84G C128U A142G, the self-cleavage came out at 0.08.
Regarding U102A U104G U112C C116A U143C, the self-cleavage came to 1.62.
With U81C C101A U115G A129G U143A, the self-cleavage came out at 1.15.
U85A A107U U115A: the self-cleavage turned out to be 0.08.
Next, A94G U119C A141G: 0.34; U100C A136U G144A: 2.04.
On to U85C G89A A94G U109C G127A U130C, for which the self-cleavage came to 0.12.
For U81C G97A A136G, the self-cleavage is 0.21.
